Among all 360,000 compounds or so, about 2,600 (0.72%) were called active. Inconclusive results, whose numbers are uncertain, are shown with a selection of clear calls. Calls follow the shape of the dose curve; as a rule, active = well fitted inhibition curve with a large enough effect; inconclusive = small, poorly fitted or top-dose-only effect; inactive = no such curve, though single readings can be large or run the other way. Where the call is inconclusive, the potency comes from a doubtful curve fit.
test: Primary qHTS for Inhibitors of ATXN expression; settings: HEK-293 ATXN2-luciferase reporter, luminescence, 24 h; series mostly up to 57 µM; also: nearly all actives have a fitted effect of over 55% in size
In short: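 ATXN2-luciferase reporter cells (luciferase flanked by upstream and downstream ATXN2 gene portions) were treated 24 h at 37 °C with compounds at up to 57 uM. SteadyGlo luminescence gave expression; GF-AFC fluorescence gave viability.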
Potency is read from the fitted curve at half-maximal effect; tags tell the direction and shape of the fitted curve.

Structure (SMILES)	Potency
CCOc1ccc(NC(=O)c2c(NCc3cccs3)sc3c2CCC(C)C3)cc1 (stereo unspecified)	inconclusive: 12.6 µM [inhibitor, partial curve]
CC(=O)Nc1ccc(CNc2nc3cc(-c4ccc(F)cc4)sc3c(=O)n2C)cc1	inactive
CC1CCCCN1c1ncnc(N)c1[N+](=O)[O-] (stereo unspecified)	inconclusive: 10.6 µM [inhibitor, partial curve, poor fit]
CC1=NN(c2ccc(Br)cc2)C(=O)/C1=C/c1ccc(-c2ccccc2C(=O)O)o1	inconclusive: 15.8 µM [inhibitor, partial curve]
CCOC(=O)c1ccc(N=C2SC(C(=O)Nc3ccccc3)CC(=O)N2C)cc1 (stereo unspecified)	inactive
CCOc1cc(/C=C2\N=C(SC(C)C(N)=O)N(c3ccc(OC(F)F)cc3)C2=O)ccc1O (stereo unspecified)	inconclusive: 1.58 µM [inhibitor, full curve]
CN1CCN(c2nc(-c3ccccc3)c3cc(Cl)ccc3n2)CC1	inactive
Cc1ccc(C(=O)Nc2nc3ccccc3n2CCN2CCCC2)cc1	inactive
CCN(CC)c1ccc(C2C(C(N)=O)=C(C)Nc3nc(SCc4ccccc4Cl)nn32)cc1 (stereo unspecified)	inconclusive: 14.1 µM [inhibitor, partial curve, poor fit]
CC(C)N(c1ccccc1)c1ccc(NC(=S)NCCN(C)C)cc1	inconclusive: 4.74 µM [inhibitor, full curve]
O=C(/C=C/c1ccc(Cl)cc1)c1cccnc1	inconclusive: 39.8 µM [inhibitor, single point]
Cn1cccc1/C=N/NC(=O)c1cc(-c2cccs2)nc2ccccc12	inactive
c1ccc(OCCNc2ccn3nc(-c4ccc(OCCN5CCOCC5)cc4)cc3n2)cc1	inconclusive: 39.8 µM [inhibitor, single point]
Cc1ccc2oc(-c3ccc(NC(=O)c4oc5ccc(Cl)cc5c4C)cc3)nc2c1	inactive
COc1ccc(C(=O)C2CCCN(Cc3cccn3-c3ccccn3)C2)c(C)c1 (stereo unspecified)	inconclusive: 26.7 µM [inhibitor, single point]
Cc1nn(-c2ccccc2)c(Cl)c1/C=N/NC(=O)c1cccnc1	inactive
Cn1c(=O)c2[nH]c(-c3ccccc3Cl)c(O)c2n(C)c1=O	inactive
CC(C)c1ccc(NC(=O)c2cc3c(=O)[nH]c4ccccc4c3n2C)cc1	inactive
Cc1ccc(NC(=O)CN(C)CC(=O)Nc2sc3c(c2C(N)=O)CCC3)cc1	inconclusive: 10 µM [inhibitor, partial curve, poor fit]
O=C(NNC(=O)c1ccccc1OCc1ccccc1Cl)c1csc(N2CCOCC2)n1	inconclusive: 14.1 µM [inhibitor, partial curve]
CCN(CC)CCn1c(NCc2ccc(C)o2)nc2ccccc21	inactive
Cc1cc(Nc2cccc(Cl)c2)nc2ccc(NC(=O)COc3ccc(Cl)cc3)cc12	inactive
C[C@H](CO)N1C[C@H](C)[C@@H](CN(C)Cc2ccc(-c3ccccc3)cc2)Oc2ncc(C#C[C@@H](C)O)cc2C1=O	inactive
O=C(CC1Sc2ccccc2NC1=O)Nc1cccc(C(F)(F)F)c1 (stereo unspecified)	inactive

Structure (SMILES)	Potency
CC(C)Nc1ncnc2c1cnn2-c1ccccc1	inactive
CN(C)c1ncc(C2=C(Cl)C(=O)C(N3CCCC3)=C(Cl)C2=O)s1	active: 25.1 µM
O=C(CCCc1ccccc1)Nc1cccc2c1CCCC2	inactive
O=C1c2ccccc2C(=O)c2c1cccc2N1CCN(CCO)CC1	inconclusive: 39.8 µM [inhibitor, single point]
CCCN(CC(=O)Nc1ccccc1OC)C(=O)c1ccc2[nH]c3c(c2c1)CC(C)CC3 (stereo unspecified)	inconclusive: 35.5 µM [inhibitor, partial curve, poor fit]
NC1(C#Cc2ccc3oc(=O)c(-n4cc(-c5ccsc5)nn4)cc3c2)CCCCC1	inactive
CN(CC(=O)NCCc1ccccc1)S(=O)(=O)c1ccc(Br)s1	inactive
O=c1c2c([N+](=O)[O-])cc([N+](=O)[O-])cc2sn1-c1ccc(Br)cc1	inactive
CCCSc1nnc(NC(=O)Nc2ccc(F)cc2)s1	inconclusive: 26.7 µM [inhibitor, single point]
O=C(CN1C2CCCC1CC(NC(=O)c1ccco1)C2)Nc1ccccc1C(F)(F)F (stereo unspecified)	inactive
CC(C)CC1C(=O)N(Cc2cn(Cc3ccco3)nn2)CCS(=O)(=O)N1Cc1ccc(-c2ccncc2)cc1 (stereo unspecified)	inconclusive: 25.1 µM [inhibitor, single point]
Cc1[nH]c2ccccc2c1C(=O)CSc1nc2cc(S(=O)(=O)N3CCCCC3)ccc2o1	inconclusive: 15.8 µM [inhibitor, partial curve, poor fit]
CCOc1ccc(-c2noc(CCC(=O)O)n2)cc1	inconclusive: 3.16 µM [inhibitor, full curve]
CNCCCOc1cc(C)cc(C)c1C	inconclusive: 3.98 µM [inhibitor, partial curve, poor fit]
O=C(CSc1nc2nc(-c3cccs3)cc(C(F)(F)F)c2c(=O)[nH]1)Nc1c(F)c(F)c(F)c(F)c1F	inconclusive: 39.8 µM [inhibitor, partial curve, poor fit]
CCCN(CC(=O)Nc1ccccc1C)C(=O)c1ccc2[nH]c3c(c2c1)CC(C)CC3 (stereo unspecified)	inconclusive: 35.5 µM [inhibitor, single point]
CC(C)c1ccc(NC(=O)c2ccc(=O)n(Cc3ccccc3)c2)cc1	inconclusive: 28.2 µM [inhibitor, single point]
CC1Cc2ccccc2N1S(=O)(=O)c1cccc(C(=O)NC2CC2)c1 (stereo unspecified)	inactive
O=C(CN1C(=O)c2ccccc2S1(=O)=O)c1ccccc1	active: 14.1 µM
NC(CCc1ccccc1)c1csc(NC(=O)NCC2CCCCC2)n1 (stereo unspecified)	inconclusive: 39.8 µM [inhibitor, single point]
O=C(Nc1ccc(S(=O)(=O)NCCc2ccccc2)cc1)c1ccncc1	inconclusive: 6.31 µM [inhibitor, partial curve, poor fit]
CN(CCCNC(=O)C1CCN(S(=O)(=O)N2CCC3(CC2)OCCO3)CC1)Cc1ccccc1	inactive
COc1ccc(O)c(-c2cc(-c3ccccc3Cl)[nH]n2)c1	inactive
COc1ccc(CNc2ncc(-c3ccc(F)cc3)n2C)c2ccccc12	active: 2 µM

Structure (SMILES)	Potency
CC(=NNC(=S)N1CC2CCC(CC2)C1)c1cnccn1	inconclusive: 0.112 µM [inhibitor, full curve, poor fit]
CC(=O)n1cc(N(C(=O)CCl)c2ccc(C)cc2)c2ccccc21	active: 8.91 µM
CN(C)c1ccc(CNC(=O)c2ccc3nc(Cc4ccccc4)oc3c2)cc1	inconclusive: 4.47 µM [inhibitor, full curve]
COP(=O)(CN(Cc1ccccc1)C(=S)Nc1c(C)cccc1C)OC	inactive
O=C1c2cccc(OCC(=O)N3N=C(c4cccs4)CC3c3ccc(F)cc3)c2CCN1Cc1cccnc1 (stereo unspecified)	inconclusive: 31.6 µM [inhibitor, single point]
O=C(N/N=C/c1ccccc1Cl)c1[nH]c2ccc(Br)cc2c1-c1ccccc1	inconclusive: 2.67 µM [inhibitor, partial curve, poor fit]
Cc1[nH]c(=O)[nH]c1C(=O)CCCCC(=O)OCC(=O)Nc1ccccn1	inactive
C=CCOc1cccc(/C=C2\C(=O)N(Cc3ccc(C)cc3)C(C)=C2C(=O)OC)c1	inconclusive: 22.4 µM [inhibitor, partial curve]
CCCn1c(=N)n(CCOc2ccc(OC)cc2)c2ccccc21	inconclusive: 31.6 µM [inhibitor, partial curve, poor fit]
Cc1ccc(CNC(=O)c2c(Nc3c(C)cccc3C)sc(C(=O)c3ccccc3)c2N)cc1	inconclusive: 39.8 µM [inhibitor, single point]
CC(C)(C)c1cc[n+](C2=C([O-])c3ccccc3C(=O)/C2=N\S(=O)(=O)c2cccs2)cc1	active: 10.6 µM
Cc1sc(NC(=O)CCCC(=O)O)c(C(N)=O)c1-c1ccccc1	inconclusive: 3.16 µM [inhibitor, full curve]
CCc1cnc2c(c1SC(C(C)=O)C(=O)N(C)C)c(=O)n(C)c(=O)n2C (stereo unspecified)	inconclusive: 39.8 µM [inhibitor, single point]
O=C(Nc1ccc2snnc2c1)Nc1cccc2ccccc12	inconclusive: 28.2 µM [inhibitor, single point]
Cc1ccc(CNC(=O)c2c(Nc3ccccc3C)sc(C(=O)c3ccc(F)cc3)c2N)cc1	inconclusive: 31.6 µM [inhibitor, single point]
c1ccc(-c2cccc(-c3ccccn3)n2)nc1	inconclusive: 3.16 µM [inhibitor, full curve]
C=C[C@@H]1c2cc(C)ccc2N(S(=O)(=O)c2ccc(C)cc2)[C@H](c2ccc(OC(C)=O)cc2)C1(C#N)C#N	active: 25.1 µM
CC1CC(C)C(=NNC(N)=O)C(C(O)CC2CCC(=O)NC2=O)C1 (stereo unspecified)	inconclusive: 20 µM [inhibitor, partial curve, poor fit]
Cc1nc(SCCc2nc3ccccc3[nH]2)c2oc3ccccc3c2n1	inactive
Cc1cc(NC(c2ccc(Cl)cc2)c2ccc3cccnc3c2O)no1 (stereo unspecified)	active: 3.16 µM
Cn1c(=O)c2c(-c3ccccc3)n(-c3ccccc3Br)cc2n(C)c1=O	inconclusive: 31.6 µM [inhibitor, single point]
COc1ccccc1-c1c(C)nn2c(N3CCN(c4ccc(F)cc4)CC3)cc(C)nc12	inactive
CC(Oc1ccc(O)cc1)(P(=O)(O)O)P(=O)(O)O	inconclusive: 1.72 µM [inhibitor, partial curve, poor fit]
